Experimental data taken from PubChem BioAssay AID1508623 (National Center for Advancing Translational Sciences (NCATS), 2021).
In all, about 48,000 compounds went through this assay and about 450 (0.94%) were called active. The inconclusive results got no clear call from the source; some entries with a clear call stand among them for comparison. Calls come from the whole dose curve; as a rule, active = well fitted inhibition curve with a large enough effect; inconclusive = small, poorly fitted or top-dose-only effect; inactive = no such curve, though single readings can be large or run the other way. Potencies beside an inconclusive call are fits to weak or partial responses and may not hold up.

Experiment: Primary qHTS for Identification of Small Molecule Inhibitors of Huntingtin Promoter Activity; note: nearly all actives have a fitted effect of over 50% in size
Conditions: HEK293 HTT promoter firefly luciferase reporter (activity 0% = vehicle and -100% = no light), 24 h; series mostly up to 57.5 µM
Procedure, shortened: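 Firefly luciferase readout (Dual-Glo, 10 min RT) after 24 h, 37 °C compound exposure (final up to 57.5 uM) of HEK293 reporter cells cultured 24 h beforehand; PTC124 at 50 uM final as control inhibitor; activity scaled vehicle 0%, zero RLU -100%.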
Potency is the fitted concentration of half-maximal effect; tags give direction and shape of the fitted curve.

| SMILES | Potency |
| --- | --- |
| COc1ccc(OCc2ccc(-c3nc(C#N)c(N4CCCCC4)o3)o2)cc1 | inconclusive: 39.8 µM [inhibitor, partial curve, poor fit] |
| Cc1ccc(N2CCN(C(=O)C3CCN(S(=O)(=O)c4ccc5c(c4)oc(=O)n5C)CC3)CC2C)cc1 (configuration not stated) | inconclusive: 2.51 µM [inhibitor, full curve] |
| Cc1ccccc1OCCn1c(=N)n(C(C)C)c2ccccc21 | inconclusive: 31.6 µM [inhibitor, partial curve] |
| CCOc1ccc(C2=CC(c3cccc(Br)c3)n3c(nc4ccccc43)N2)cc1Cl (configuration not stated) | inactive |
| CCOc1ccc(NC(=O)C2CCN(C(=O)N3CC(C)Oc4ccc(Cl)cc43)CC2)cc1 (configuration not stated) | inconclusive: 39.8 µM [inhibitor, single point] |
| O=C(Nc1ccc2oc(-c3cc(Br)ccc3Cl)nc2c1)c1cc2ccccc2o1 | inconclusive: 28.2 µM [inhibitor, single point] |
| CCOc1ccc(NC(=O)C(CC)n2c(=O)c(-c3ccccc3NC(C)=O)nc3ccccc32)cc1 (configuration not stated) | inconclusive: 12.6 µM [inhibitor, partial curve, poor fit] |
| Cc1ccc(CNC(=O)Cn2cc(S(=O)(=O)Cc3ccccc3Cl)c3ccccc32)cc1 | inconclusive: 20 µM [inhibitor, single point] |
| Nc1nnc(SCC(=O)Nc2ccc(Cl)cc2)s1 | inactive |
| Cc1cc(Cl)ccc1NC(=O)c1cccc(NC(=O)N2CCSc3ncccc32)c1 | inconclusive: 14.1 µM [inhibitor, partial curve] |
| N#Cc1ccccc1CN1C(=O)c2ccccc2Sc2ccc(C(=O)OCc3ccco3)cc21 | inconclusive: 17.8 µM [inhibitor, partial curve, poor fit] |
| CC(C)c1ccc(NC(=O)CN2C(=O)C3(SCC(=O)N3c3ccc(F)cc3)c3ccccc32)cc1 (configuration not stated) | inconclusive: 25.1 µM [inhibitor, single point] |
| CCCOc1ccc(CC2C(=O)Nc3ccc(Br)cc32)cc1 (configuration not stated) | inactive |
| CC(C(=O)NCc1ccccc1)n1ccc2cc(S(=O)(=O)N3CCCC3)ccc21 (configuration not stated) | inconclusive: 35.5 µM [inhibitor, partial curve, poor fit] |
| Cc1ccc(C(=O)CC2(O)C(=O)N(CCc3ccccc3)c3ccc(Br)cc32)cc1 (configuration not stated) | inconclusive: 39.8 µM [inhibitor, single point] |
| CCc1cccc(NC(=O)CN2C(=O)COc3ccc(S(=O)(=O)N4CCC(C)CC4)cc32)c1 | inconclusive: 39.8 µM [inhibitor, single point] |
| Cc1ccc(Cn2c(C)c3cnn(CC(=O)N4CCN(c5cc(C)ccc5C)CC4)c(=O)c3c2C)cc1 | inconclusive: 8.91 µM [inhibitor, partial curve, poor fit] |
